{"source": "PubChem BioAssay (NCI)", "tested_on": "NCI-H322M lung", "assay": "NCI-60 cell line screen, 48 h", "note": "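Tested at 5 concentrations; 48 h exposure; 96-well plates; endpoints linearly interpolated, else capped at highest concentration. Abbreviation: GI50, concentration required for 50% inhibition of growth. Definition used: TGI = concentration required for complete inhibition of growth.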"}
{"smiles": "CN1CCN(c2ccc(Nc3nc(NCCCNC(=O)C4CCCCC4)c4sccc4n3)cc2)CC1", "values": [{"measurement": "GI50", "result": 16.1, "unit": "µM"}, {"measurement": "TGI", "result": 35.4, "unit": "µM"}]}
{"smiles": "CC(=O)Nc1ccc(-c2cn(-c3cccc(C(=O)Nc4cc(C(F)(F)F)cc(C(F)(F)F)c4)c3)nn2)cn1", "values": [{"measurement": "GI50", "result": 14.2, "unit": "µM"}, {"measurement": "TGI", "result": 33.2, "unit": "µM"}]}
{"smiles": "Fc1ccc(F)c(CNc2nc(SCCN3CCOCC3)nc3c2cnn3CC(Cl)c2ccc(Br)cc2)c1", "note": "(stereo not drawn)", "values": [{"measurement": "GI50", "result": 19.5, "unit": "µM"}, {"measurement": "TGI", "result": "> 100", "unit": "µM"}]}
{"smiles": "CN(C)CCCNC(=O)c1cc(NC(=O)c2cc(NC(=O)c3ccc(C#Cc4ccccc4)cc3)cn2C)cn1C", "values": [{"measurement": "GI50", "result": 3.92, "unit": "µM"}, {"measurement": "TGI", "result": 15.2, "unit": "µM"}]}
